Data taken from PubChem BioAssay AID1347165 (National Center for Advancing Translational Sciences (NCATS), 2019).
Among all 220,000 compounds or so, about 5,700 (2.6%) were called active. The inconclusive results got no clear call from the source; some entries with a clear call stand among them for comparison. The call rests on the fitted dose curve; in most records, active means well fitted inhibition curve with a large enough effect; inconclusive means small, poorly fitted or top-dose-only effect; inactive means no such curve, though single readings can be large or run the other way. Potencies beside an inconclusive call are fits to weak or partial responses and may not hold up.

biological target: Lysine-specific demethylase 5B (Homo sapiens) (UniProt Q9UGL1); assay: Primary screen for KDM5B Histone Demethylases FDH-coupled qHTS; conditions: FDH-coupled NADH fluorescence (FDH is formaldehyde dehydrogenase); activity change, negative = inhibition: at 57.7 µM (top of the series) unless noted; further: nearly all actives have a fitted effect of over 70% in size; on activity change, negative = inhibition: 0% is about no effect
Summary of the method: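 qHTS format, multiple compound concentrations. Buffer 50 mM HEPES pH 7.5/0.01% Tween-20; 200 nM KDM5BΔAP final; 10 min compound preincubation; substrate-mix levels 12.5 µM peptide, 25 µM α-KG, 0.25 mM NAD⁺; 30 min RT; ΔRFU.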
Potency means the concentration at half of the fitted maximal effect; tags describe the fitted curve by direction and shape.

UniProt Q9UGL1, sequence (Q9UGL1 whole entry, looked up): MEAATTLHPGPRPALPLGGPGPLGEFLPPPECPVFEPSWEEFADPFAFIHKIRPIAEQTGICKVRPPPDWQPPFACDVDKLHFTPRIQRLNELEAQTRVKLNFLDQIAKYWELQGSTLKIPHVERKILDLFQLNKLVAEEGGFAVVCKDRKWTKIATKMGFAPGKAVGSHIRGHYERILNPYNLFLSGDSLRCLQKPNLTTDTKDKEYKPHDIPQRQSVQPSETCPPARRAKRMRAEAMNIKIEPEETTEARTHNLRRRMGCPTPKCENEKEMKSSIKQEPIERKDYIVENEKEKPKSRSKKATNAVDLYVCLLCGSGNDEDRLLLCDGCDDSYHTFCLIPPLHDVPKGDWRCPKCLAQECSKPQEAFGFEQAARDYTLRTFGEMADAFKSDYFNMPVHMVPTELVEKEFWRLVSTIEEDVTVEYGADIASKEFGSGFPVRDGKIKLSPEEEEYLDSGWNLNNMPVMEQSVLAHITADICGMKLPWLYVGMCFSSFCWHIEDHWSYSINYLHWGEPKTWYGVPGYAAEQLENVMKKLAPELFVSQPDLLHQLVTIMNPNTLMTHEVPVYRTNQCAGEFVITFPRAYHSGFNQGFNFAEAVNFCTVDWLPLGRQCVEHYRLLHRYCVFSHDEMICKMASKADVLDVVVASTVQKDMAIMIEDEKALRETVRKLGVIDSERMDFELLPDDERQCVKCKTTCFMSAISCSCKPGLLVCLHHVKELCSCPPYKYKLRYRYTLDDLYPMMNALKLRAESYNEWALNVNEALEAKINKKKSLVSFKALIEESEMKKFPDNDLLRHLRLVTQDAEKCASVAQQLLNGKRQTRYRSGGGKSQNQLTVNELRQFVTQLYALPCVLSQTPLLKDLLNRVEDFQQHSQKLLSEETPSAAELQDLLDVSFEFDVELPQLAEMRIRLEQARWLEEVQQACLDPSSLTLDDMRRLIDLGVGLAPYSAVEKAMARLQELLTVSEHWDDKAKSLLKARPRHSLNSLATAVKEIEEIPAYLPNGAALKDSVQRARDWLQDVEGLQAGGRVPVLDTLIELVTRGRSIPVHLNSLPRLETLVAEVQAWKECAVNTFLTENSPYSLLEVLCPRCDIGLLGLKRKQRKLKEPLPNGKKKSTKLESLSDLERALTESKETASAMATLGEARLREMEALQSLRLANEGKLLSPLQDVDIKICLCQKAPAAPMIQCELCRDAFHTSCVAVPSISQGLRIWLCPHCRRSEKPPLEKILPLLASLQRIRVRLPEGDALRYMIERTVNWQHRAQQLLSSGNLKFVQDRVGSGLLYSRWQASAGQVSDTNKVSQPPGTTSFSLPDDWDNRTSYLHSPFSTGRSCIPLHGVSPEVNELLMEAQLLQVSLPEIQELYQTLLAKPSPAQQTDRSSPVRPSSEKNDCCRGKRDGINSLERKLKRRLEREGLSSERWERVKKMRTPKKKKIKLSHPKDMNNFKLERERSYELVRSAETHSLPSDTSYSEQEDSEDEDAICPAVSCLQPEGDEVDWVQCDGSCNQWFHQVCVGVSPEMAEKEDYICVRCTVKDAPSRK

| Structure (SMILES) | Potency | activity change, negative = inhibition |
| --- | --- | --- |
| COc1cc(NC(=O)Cn2cc(S(=O)(=O)N3CCC(C)CC3)c3ccccc3c2=O)cc(OC)c1OC | inconclusive: 12.6 µM [inhibitor, partial curve, poor fit] |  |
| N#CC(C(=O)C1CCCCC1)c1nc2ccccc2s1 (configuration not stated) | inconclusive: 10 µM [inhibitor, partial curve, poor fit] |  |
| CCc1nnc([C@@H]2CC(F)(F)CN2C(=O)c2cc(C)oc2C)o1 | inconclusive: 11.2 µM [inhibitor, partial curve] |  |
| Cc1ccc(NC(=O)c2nn(-c3ccccc3)c(=O)c3ccccc23)c(F)c1 |  | inactive: -5.2% |
| CC1(CCCCc2ccccc2)COc2ccc(C(=O)NCc3ccncc3)cc2N1 (configuration not stated) | active: 31.6 µM |  |
| COc1cc(CN2C(=O)C(=O)c3cc(C)ccc32)ccc1OCCC(C)C |  | inactive: -14.5% |
| COc1ccc(CCc2nc3nccc(-c4ccncc4)n3n2)cc1 |  | inactive: 14.2% |
| Cc1cc(C)cc(OC(C)C(=O)Nc2nc3c(s2)CCCC3)c1 (configuration not stated) |  | inconclusive: -35.6% [inhibitor] |
| C/C(=N/NC(=S)NC(C)C)c1ccccn1 | inconclusive: 28.2 µM [inhibitor, single point] |  |
| COc1ccc(CNC(=O)[C@@H]2Cc3nc[nH]c3CN2Cc2ccc(OC)c3ccccc23)cc1 | inconclusive: 31.6 µM [inhibitor, partial curve, poor fit] |  |
| O=C(NCc1nnc2ccc(-c3ccccc3)nn12)c1ccoc1 | active: 31.6 µM |  |
| Cc1cc(Cl)ccc1NC(=O)COc1ncnc2ccc(Br)cc12 |  | inactive: 1.93% |
| O=C(C1CC1)N1Cc2ccccc2NC(=O)C12CCNC2 (configuration not stated) |  | inactive: 8.88% [at 149 µM] |
| COc1ccc(C(=O)NCc2nnc3c(-c4nc(C5CC5)no4)cccn23)c(C)c1 |  | inactive: -27.6% |
| CC(Oc1ccc(C=Nc2ccc(N3CCOCC3)cc2)cc1)C(=O)O (configuration not stated) | inconclusive: 10 µM [inhibitor, partial curve, poor fit] |  |
| CCCN(C)c1nccnc1OC1CCN(C(=O)C(C)C)C1 (configuration not stated) | inconclusive: 28.2 µM [inhibitor, partial curve, poor fit] |  |
| COc1ccc(-c2nccn3cc(C(=O)NCc4cccnc4)nc23)cc1 | active: 20 µM |  |
| Cc1oc2cc(OCC(=O)N3CCC(C(=O)O)CC3)ccc2c(=O)c1-c1ccc(Cl)cc1 |  | inactive: 11.7% |
| Cn1ncc2c(NCCc3cn4ccccc4n3)nc(C3CCCC3)nc21 | active: 20 µM |  |
| COc1ccc(SC(C)C(=O)NCc2ccnc(N3CCOCC3)c2)cc1 (configuration not stated) | inconclusive: 39.8 µM [inhibitor, single point] |  |
| CCc1ccc(N2CC(c3noc(-c4sccc4C)n3)CC2=O)cc1 (configuration not stated) | inconclusive: 22.4 µM [inhibitor, partial curve] |  |
| Cc1ccc(NC(=O)Cc2nc(CSc3nncn3-c3ccccc3C)cs2)cc1 |  | inactive: -11.3% |
| COC[C@@H]1[C@H](C(=O)N2CCN(c3ccc(F)cc3)CC2)CCC(=O)N1C | inconclusive: 12.6 µM [inhibitor, partial curve] |  |
| Cc1ccc(Cn2c(C3CCN(C(=O)c4cc(C)cc(C)c4)CC3)n[nH]c2=O)cc1 |  | inactive: 11.1% |

| Structure (SMILES) | Potency | activity change, negative = inhibition |
| --- | --- | --- |
| Cc1noc(-c2ccccc2Cl)c1C(=O)NCCC(c1ccccc1)c1ccccc1 | inconclusive: 31.6 µM [inhibitor, single point] |  |
| COc1ccc(C(=O)N[C@@H]2CCC[C@@H]2C(=O)N2CCN(c3cccc(Cl)c3)CC2)cn1 |  | inactive: 0.469% |
| CCN(CC)CCCN(C/C=C/c1ccccc1)C/C=C/c1ccccc1 | inconclusive: 20 µM [inhibitor, single point] |  |
| COc1cccc(Nc2ncc(-c3ccc(OC)nc3)c3c2OCC3)c1 | inconclusive: 39.8 µM [inhibitor, partial curve, poor fit] |  |
| Cc1occc1-c1nc(-c2ccc(Cl)cc2)no1 |  | inactive: 21.1% |
| COc1cc(NC(=O)c2cc3c(N4CCSCC4)nc(C)cn3n2)cc(OC)c1 | active: 31.6 µM |  |
| CCc1ccccc1NC(=O)C1CC1 | inconclusive: 31.6 µM [inhibitor, partial curve, poor fit] |  |
| Cc1cc(-c2cc(C(=O)Nc3ccccc3)c3c(C)noc3n2)c(C)s1 | inconclusive: 39.8 µM [inhibitor, single point] |  |
| CC(C)c1noc(COc2ccc(C(=O)NC3CC3)cc2)n1 |  | inactive: -6.17% |
| O=C(c1cc2ccccc2oc1=O)N(Cc1ccc(Cl)cc1)Cc1ccco1 |  | inactive: -13.8% |
| Cc1cccc(NC(=O)CCS(=O)(=O)c2cc(Br)cc3c2N(C(=O)C2CC2)CC3)c1C |  | inactive: -5.74% |
| C/C=C/c1ccc(OCC(O)CNCc2ccc(OC)cc2)c(OC)c1 (configuration not stated) |  | inactive: 3.14% |
| CCCNC(=O)Cn1nc(C)c2c(C)n(-c3ccccc3)nc2c1=O | inconclusive: 14.1 µM [inhibitor, partial curve, poor fit] |  |
| O=C1Cc2c(-c3ccccc3Cl)n[nH]c2CN1CC1CC1 | inconclusive: 31.6 µM [inhibitor, single point] |  |
| O=C(CSc1oc(-c2ccco2)nc1S(=O)(=O)c1ccc(Br)cc1)c1ccc(Cl)cc1 | inconclusive: 39.8 µM [inhibitor, single point] |  |
| COc1cccc(CN2CCOC3CCN(C(=O)c4ccccc4)CC3C2=O)c1 (configuration not stated) |  | inactive: -10.1% [at 86.2 µM] |
| Cc1cc(OC(C)C(=O)NCCCN(C)C)c2c(C)c(C)c(=O)oc2c1 (configuration not stated) | inconclusive: 28.2 µM [inhibitor, partial curve, poor fit] |  |
| Cn1nnnc1-c1cccc(NS(=O)(=O)c2ccccc2)c1 |  | inactive: 19.3% |
| c1ccc(-c2cc3c(ccn3Cc3ccncc3)c(N3CCOCC3)n2)cc1 | active: 7.94 µM |  |
| Cc1ccc(-n2ncc3c(NCc4ccccc4)ncnc32)cc1C | inconclusive: 31.6 µM [inhibitor, partial curve, poor fit] |  |
| Cc1cc(Br)ccc1NC(=O)c1sc2ncn(Cc3ccccc3Cl)c(=O)c2c1C |  | inactive: 20.5% |
| COC(=O)C1CCN(c2csc3ccc(C)cc3c2=O)CC1 | inconclusive: 22.4 µM [inhibitor, partial curve, poor fit] |  |
| CN(C)[C@@H]1C[C@@H](CO)N(C(=O)c2csc3nc(-c4ccccc4Cl)cn23)C1 | inconclusive: 35.5 µM [inhibitor, single point] |  |
